# Results published in PubChem BioAssay AID504339 (National Center for Advancing Translational Sciences (NCATS), 2011).
# Values joined by “and” are separate entries in the source; they are usually repeats but may differ in a detail not shown here. Equal entries are not always repeated. About 17,000 (4.4%) of roughly 390,000 compounds were called active. This list was built around the results that the source calls inconclusive (neither active nor inactive); the mix of calls is not that of the screen. The call rests on the fitted dose curve; in most records, active means well fitted inhibition curve with a large enough effect; inconclusive means small, poorly fitted or top-dose-only effect; inactive means no such curve, though single readings can be large or run the other way. A potency beside an inconclusive call is a rough fit, not a confirmed value.
# Molecular target: Lysine-specific demethylase 4A (Homo sapiens) (UniProt O75164)
# UniProt O75164, sequence (O75164 whole entry, looked up, the tested form may be a part): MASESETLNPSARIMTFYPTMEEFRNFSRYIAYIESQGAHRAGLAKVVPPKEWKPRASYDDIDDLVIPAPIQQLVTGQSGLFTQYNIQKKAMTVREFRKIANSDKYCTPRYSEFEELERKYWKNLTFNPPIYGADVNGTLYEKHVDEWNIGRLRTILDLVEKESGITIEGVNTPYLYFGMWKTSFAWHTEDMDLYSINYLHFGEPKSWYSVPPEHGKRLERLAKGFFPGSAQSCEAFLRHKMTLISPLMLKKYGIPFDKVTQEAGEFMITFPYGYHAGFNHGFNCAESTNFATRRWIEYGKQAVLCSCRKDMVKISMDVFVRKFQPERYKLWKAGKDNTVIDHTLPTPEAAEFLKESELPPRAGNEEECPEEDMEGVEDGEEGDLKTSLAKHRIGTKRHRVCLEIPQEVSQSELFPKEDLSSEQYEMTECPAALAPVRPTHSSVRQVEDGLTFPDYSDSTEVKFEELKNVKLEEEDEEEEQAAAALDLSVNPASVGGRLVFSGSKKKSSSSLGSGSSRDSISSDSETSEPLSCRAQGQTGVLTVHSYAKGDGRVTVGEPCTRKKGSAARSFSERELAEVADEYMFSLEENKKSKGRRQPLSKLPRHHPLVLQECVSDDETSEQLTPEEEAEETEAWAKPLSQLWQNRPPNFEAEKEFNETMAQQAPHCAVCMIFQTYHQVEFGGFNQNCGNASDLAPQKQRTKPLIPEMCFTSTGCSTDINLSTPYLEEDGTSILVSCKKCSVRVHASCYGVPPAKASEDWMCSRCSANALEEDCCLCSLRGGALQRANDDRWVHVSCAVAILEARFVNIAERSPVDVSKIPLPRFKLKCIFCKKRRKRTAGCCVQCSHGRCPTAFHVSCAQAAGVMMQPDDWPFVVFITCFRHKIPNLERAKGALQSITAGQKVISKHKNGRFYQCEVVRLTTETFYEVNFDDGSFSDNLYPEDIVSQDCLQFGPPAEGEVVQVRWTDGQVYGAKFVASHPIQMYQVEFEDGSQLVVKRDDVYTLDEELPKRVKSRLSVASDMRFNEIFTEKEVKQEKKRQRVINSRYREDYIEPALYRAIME
# Assay: qHTS Assay for Inhibitors of JMJD2A-Tudor Domain; further: nearly all actives have a fitted effect of over 50% in size
# Conditions: AlphaScreen JMJD2A-Tudor / H3K4me3 peptide binding; series mostly up to 114 µM; activity change, negative = inhibition: at the top concentration
# On the % scale 0 is the no-effect control and ±100 the full control effect; potency means the concentration at half of the fitted maximal effect; tags describe the fitted curve by direction and shape.
Structure (SMILES),"activity change, negative = inhibition",Potency
Cc1ccc(-c2nc(C#N)c(NCc3ccco3)o2)cc1,inactive: 4.12%,
CCCCS(=O)(=O)/C=C\C=C/S(=O)(=O)CCCC,,"inconclusive: 89.1 µM [inhibitor, single point]"
CSc1nnc(-c2ccc([N+](=O)[O-])cc2)o1,inactive: -12.4%,
Oc1ccccc1CNc1cccc2cccnc12,,"inconclusive: 44.7 µM [inhibitor, partial curve]"
COC(=O)[C@@H](c1ccccc1)N(C)S(=O)(=O)c1cccc(S(=O)(=O)N(C)[C@@H](C(=O)OC)c2ccccc2)c1,inactive: -1.43%,
CCOc1ccc(-n2cc(-c3ccccc3)c3c(N4CCN(c5ccccc5OC)CC4)ncnc32)cc1,,"inconclusive: 31.6 µM [inhibitor, partial curve]"
Cc1ccc(C2=NC(=O)/C(=C/c3cc(O)c(O)c(Br)c3)S2)cc1,,active: 5.01 µM
CCN1CCN(CCC(=O)Nc2ccccc2C)CC1,,"inconclusive: 28.2 µM [inhibitor, single point]"
Cc1cc(C)cc(C(=O)Nc2cccnc2)c1,inactive: 3.99%,
O=[N+]([O-])c1ccc(Oc2cc(NC3CCCCCCC3)c([N+](=O)[O-])cc2[N+](=O)[O-])cc1,,"inconclusive: 8.91 µM [inhibitor, partial curve, poor fit]"
Nc1ccc(S(=O)(=O)N2CCCN(S(=O)(=O)c3ccc4c(c3)OCCO4)CC2)cc1,,active: 89.1 µM
Cc1nc2cc(NC(=O)c3ccc([N+](=O)[O-])s3)ccc2s1,,"inconclusive: 14.1 µM [inhibitor, full curve, poor fit]"
CCn1c(CN2CCC(C)CC2)nc2cc(NC(=O)COc3ccc(Cl)c(C)c3)ccc21,inactive: -35.8%,
C[N+]1(CCNC(=O)/C=N/O)CCCCC1,,active: 50.1 µM
CC(=O)c1cccc(N=Cc2c(O)ccc3ccccc23)c1,,active: 70.8 µM
CCOc1ccc(NS(=O)(=O)c2cccc(C(=O)N3CCN(C/C=C/c4ccccc4)CC3)c2)cc1,,"inconclusive: 44.7 µM [inhibitor, partial curve]"
Nc1ccccc1OCCOCCOc1ccccc1N,,"inconclusive: 56.2 µM [inhibitor, partial curve]"
CC(=O)NC(CC(=O)OCC(=O)N1CCN(S(=O)(=O)c2ccc(C)cc2C)CC1)c1ccccc1 (stereo not given),inactive: -11%,
COn1c(-c2ccccc2)nc2c1CCc1c-2no[n+]1[O-],inactive: -5.73%,
O=C(O)c1ccc(N/N=C/c2ccc3ncccc3c2)cc1,,"inconclusive: 63.1 µM [inhibitor, single point]"
COc1ccc(C(=O)Cn2c(Cl)nc3c2c(=O)n(C)c(=O)n3C)cc1,inactive: -14.5%,
COc1ccccc1N/C(N)=N/c1nc(CSc2ccc(C)cc2)cc(=O)[nH]1,,active: 79.4 µM
Cc1cc2cc(C)c3nnc(SCC(=O)NCc4ccco4)n3c2cc1C,,"inconclusive: 56.2 µM [inhibitor, partial curve]"
Cc1cccc(NC(=O)COc2ccc(-c3nn(C)c(=O)c4ccccc34)cc2)c1,,inactive
CCC1=C(OC(=O)N(CC)CC)N2C(=O)OC(=NCCc3c[nH]c4ccccc34)[C@]2(Cc2ccccc2)[C@H]2C1=CC[C@H]1C(=O)N(CC)C(=O)[C@H]12,,"inconclusive: 56.2 µM [inhibitor, partial curve]"

Structure (SMILES),"activity change, negative = inhibition",Potency
Cc1cc(Cl)cc2c1NC(=O)[C@]21[C@@H]2C(=O)N(Cc3ccccc3)C(=O)[C@@H]2[C@@H]2CCCN21,,"inconclusive: 39.8 µM [inhibitor, partial curve]"
CC(=O)c1ccc(NS(=O)(=O)c2ccc3[nH]c4c(c3c2)CCCC4)cc1,,"inconclusive: 50.1 µM [inhibitor, partial curve]"
O=C1C(=O)N(CCN2CCOCC2)C(c2ccc([N+](=O)[O-])cc2)/C1=C(/O)c1ccc2c(c1)OCO2 (stereo not given),,active: 25.1 µM
CCOC(=O)/C(C#N)=C/c1c(N2CCN(c3ccccc3)CC2)nc2ccccn2c1=O,,"inconclusive: 15.8 µM [inhibitor, full curve]"
Cn1c(=O)c2c(nc(N3CCN(Cc4ccccc4)CC3)n2CCCc2ccccc2)n(C)c1=O,,"inconclusive: 50.1 µM [inhibitor, partial curve]"
CCCCCCCCCCC[N+](C)(C)CC/C=C1/c2ccccc2Sc2ccc(Cl)cc21,,"inconclusive: 50.1 µM [inhibitor, partial curve]"
Cn1cccc1/C=N/NC(=O)CSc1nc2ccccc2n1C,,"inconclusive: 56.2 µM [inhibitor, partial curve]"
CCOC(=O)Nc1sc(=S)n(C)c1C,inactive: -8.59%,
CCc1ccc(OCCCCCn2ccnc2)cc1,,active: 2.51 µM
COc1ccc(CCNCC(O)COc2cccc(C(C)=O)c2)cc1OC (stereo not given),,active: 25.1 µM
CC(C)(C)C(=O)/C=C(N)/C=C/c1ccccc1,,"inconclusive: 56.2 µM [inhibitor, partial curve]"
COc1ccc(N2CC(C(=O)Nc3ccc(S(=O)(=O)Nc4nccs4)cc3)CC2=O)c(OC)c1 (stereo not given),,"inconclusive: 89.1 µM [inhibitor, single point]"
CCN(C(=O)COC(=O)Cc1coc2cc(C)ccc12)c1c(N)n(Cc2ccccc2)c(=O)[nH]c1=O,inactive: -8.33%,
CCOC(=O)CNC(=S)N(Cc1ccco1)Cc1ccccc1Cl,inactive: -23.3%,
COc1ccc(C2=C(N3CCN(c4cccc(C)c4)C(C)C3)c3ccccc3C2=O)cc1 (stereo not given),,active: 7.08 µM
COc1cccc(C=NN2CCCCCC2)c1OC,,active: 56.2 µM
O=C(Nc1ccc(Cl)cc1)N1CCCN(c2ccc(C(F)(F)F)cc2[N+](=O)[O-])CC1,,"inconclusive: 39.8 µM [inhibitor, full curve]"
Cc1ccccc1/C(N)=N/OC(=O)N1c2ccccc2Sc2ccccc21,,"inconclusive: 20 µM [inhibitor, full curve]"
CSc1nc(Oc2cccc(C(F)(F)F)c2)cc(C(F)(F)F)n1,inactive: 21.9% [at 11.4 µM],
CC1(C)CC(/C=C/c2ccccc2)=Nc2ccccc2N1,,"inconclusive: 56.2 µM [inhibitor, partial curve]"
C[n+]1cc(C(=O)N2CCCCC2)ccc1/C=C/c1c[nH]c2ccccc12,,"inconclusive: 31.6 µM [inhibitor, single point]"
COc1cccc(NC(=O)CSc2nccn2C2CCCC2)c1,inactive: -25.7%,
COc1cc(OC)c2ccc(=O)oc2c1C(CCN1CCCCC1)c1ccc(N(C)C)cc1 (stereo not given),,active: 35.5 µM
COc1ccc(CNCCC(c2ccc3c(c2)OCO3)c2ccccc2OC)cc1 (stereo not given),,"inconclusive: 25.1 µM [inhibitor, full curve]"
COc1cc2ncc(C(=O)c3ccc(C)cc3)c(N3CCCCC3)c2cc1OC,,active: 56.2 µM

Structure (SMILES),"activity change, negative = inhibition",Potency
CC(CNC(=O)c1nnc(Cc2ccc(F)cc2)o1)c1ccccc1 (stereo not given),inactive: -3.95%,
Cc1ccc(S(=O)(=O)/N=C2\C=C(Nc3ccc(O)cc3)C(=O)c3ccccc32)cc1,,active: 5.62 µM
NCCCCNCCCN,inactive: -1.44%,
COCCCNC(=O)Cn1c(=O)nc(-c2ccccc2)c2ccccc21,inactive: -0.662%,
FC(F)(F)c1ccccc1Nc1nccs1,,active: 50.1 µM
CCOC(=O)c1ccc(-c2c(-c3ccc4c(c3)OCO4)noc2C)cc1F,inactive: 16.9%,
CC(C)C(OC(=O)c1cccs1)C(=O)NCc1ccco1 (stereo not given),inactive: -19.1%,
Cc1ccc(C(C)C)cc1OCC(=O)Nc1ccc(N2CCCCC2)cc1,,"inconclusive: 14.1 µM [inhibitor, full curve]"
COc1ccccc1/C=C/c1onc(C)c1S(=O)(=O)N1CCC(C(=O)N2CCC(C)CC2)CC1,inactive: -11.2%,
COc1cccc(OC)c1C(=O)Nc1ccccc1N1CCCCC1,,"inconclusive: 3.55 µM [inhibitor, partial curve, poor fit]"
CSCCC(C(=O)NC1=NCCS1)N1C(=O)c2ccccc2C1=O (stereo not given),,active: 79.4 µM
CC(C)(C)CC(=O)OCC(=O)Nc1cc(C(C)(C)C)nn1-c1ccccc1,,"inconclusive: 20 µM [inhibitor, full curve, poor fit]"
CCOC(=O)C1CCCN(CC(=O)NC2CC2)C1 (stereo not given),,active: 5.01 µM
CN(Cc1ccccc1)c1c([N+](=O)[O-])c(=O)n(C)c2ccccc12,,"inconclusive: 44.7 µM [inhibitor, partial curve]"
COc1cc(-c2nnc3sc(C4CCCCC4)nn23)cc(OC)c1OC,inactive: -13.5%,
CC(C)C1CC(CCNCc2ccc(N(C)C)cc2)(c2ccccc2)CCO1 (stereo not given),,active: 31.6 µM
CCSc1nnc(NC(=O)C2CCCN(S(=O)(=O)c3cnc[nH]3)C2)s1 (stereo not given),,"inconclusive: 28.2 µM [inhibitor, full curve]"
CCOC(=O)c1nc(Nc2ccc(Nc3ccccc3)cc2)c2ccccc2n1,,active: 28.2 µM
COc1ccc(CNCCC(c2ccc(C)cc2)c2ccco2)cc1 (stereo not given),,active: 25.1 µM
CN(c1ccccc1)S(=O)(=O)c1cccc(C(=O)NCCc2ccc(O)c(O)c2)c1,,active: 12.6 µM
Cc1c(C)n(CC(O)CN2CCCCCC2)c2ccccc12 (stereo not given),,"inconclusive: 44.7 µM [inhibitor, partial curve]"
Cc1c(C(=O)c2ccc(F)cc2)c2ccccn2c1CCc1ccccn1,inactive: -30.1%,
CN1CCc2cccc3c2[C@H]1Cc1ccc(O)c(O)c1-3,,active: 12.6 µM and active: 10 µM and active: 8.91 µM
COc1ccc(-c2ccc(OC)c([C@H]3[C@@H]4C=CCC[C@@]4(C)C(=O)N3Cc3ccccc3)c2)cc1OC,,"inconclusive: 28.2 µM [inhibitor, partial curve]"
Cc1ccc(Cl)cc1NC(=S)NCc1cccn1C,,"inconclusive: 35.5 µM [inhibitor, single point]"
